# Experimental data as given in PubChem BioAssay AID588855 (National Center for Advancing Translational Sciences (NCATS), 2011).
# Values joined by “and” are separate entries in the source; they are usually repeats but may differ in a detail not shown here. Equal values may be shown once. About 5,000 (1.2%) of roughly 410,000 compounds were called active. Inconclusive means that the source gave no clear call. Such entries were picked first, then a sample of the others. Calls come from the whole dose curve; as a rule, active = well fitted inhibition curve with a large enough effect; inconclusive = small, poorly fitted or top-dose-only effect; inactive = no such curve, though single readings can be large or run the other way. A potency beside an inconclusive call is a rough fit, not a confirmed value.
# Test: qHTS for Inhibitors of TGF-b; note: nearly all actives have a fitted effect of over 65% in size
# Settings: HepG2 CAGA-GFP TGF-b/SMAD3 reporter, GFP fluorescence, 18 h, TGF-beta stimulated, 500 pg/mL final; series mostly up to 46.1 µM; activity, negative = inhibition: at the top concentration
# In short: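 Smad-responsive CAGA-GFP expression was quantified in HEPG2 cells exposed to compounds and 500 pg/mL final TGF-beta for 18 h at 37 degrees C; unstimulated wells defined full inhibition.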
# % is set by controls: 0 for no effect and ±100 for the full control effect; potency is the fitted concentration of half-maximal effect; tags give direction and shape of the fitted curve.
Structure (SMILES),Potency,"activity, negative = inhibition"
Cc1ccccc1-n1c(SCC(=O)Nc2ccccc2)nc2nc3c(cc2c1=O)CCCC3,"inconclusive: 8.91 µM [inhibitor, partial curve, poor fit]",
Cc1ccc(CNC(=O)Cn2c3ncccc3c(=O)n2-c2ccccc2)cc1,"inconclusive: 0.562 µM [inhibitor, full curve, poor fit]",
O=C(CSc1ccc(-c2ccccn2)nn1)Nc1ccc(F)c(F)c1,"inconclusive: 7.94 µM [inhibitor, partial curve, poor fit] and inconclusive: 22.4 µM [inhibitor, single point]",
Cc1cc(C)cc(NC(=O)Nc2c(Br)cnn2C)c1,,inactive: 9.93%
C=CCn1c(SCc2nc3ccccc3c(=O)[nH]2)nc2scc(C3CC3)c2c1=O,"inconclusive: 10 µM [inhibitor, partial curve]",
Cc1nn(-c2ccc(F)cc2)c(-n2cccc2)c1C(=O)N1CCN(c2ccc(F)cc2)CC1,,inactive: 18.4%
COc1ccc(NC(=O)COc2ccccc2C)cc1S(=O)(=O)N1CCCCC1,"inconclusive: 15.8 µM [inhibitor, partial curve, poor fit]",
CC1C(=O)N(Cc2cn(Cc3ccco3)nn2)CCS(=O)(=O)N1Cc1ccc(-c2ccccc2Cl)cc1 (centres undefined),"inconclusive: 10 µM [inhibitor, partial curve, poor fit]",
Cc1c(NC(=O)c2cc([N+](=O)[O-])ccc2N2CCOCC2)cccc1-c1nc2ccccc2o1,"inconclusive: 28.2 µM [inhibitor, single point]",
CCOc1ncccc1C(=O)OCC(=O)Nc1cc(S(=O)(=O)N2CCOCC2)ccc1Cl,,inactive: 9.76%
O=C(CCCOc1ccc(Cl)cc1Cl)N1CCN(c2ccccn2)CC1,"inconclusive: 35.5 µM [inhibitor, single point]",
Cc1onc(-c2ccccc2Cl)c1C(=O)OCC(=O)N1CCCc2ccccc21,,inactive: -4.74%
COc1ccc(CSc2nnnn2C)cc1[N+](=O)[O-],,inactive: -7.85%
Cc1ccc(S(=O)(=O)N2CCOCC2)cc1C(=O)Nc1nc2ccccc2[nH]1,"inconclusive: 1.41 µM [inhibitor, partial curve]",
Clc1ccc(Cn2cc(/C=N/n3cnnc3)c3ccccc32)cc1,"inconclusive: 10 µM [inhibitor, partial curve]",
C=C[C@]1(C)C=C2CC[C@H]3[C@@](C)(CCC[C@@]3(C)C(=O)O)[C@@H]2CC1,"inconclusive: 25.1 µM [inhibitor, single point]",
CCOc1cc(NS(=O)(=O)c2ccc(NC(C)=O)cc2)c(OCC)cc1NC(=O)C(C)C,"inconclusive: 35.5 µM [inhibitor, single point]",
Cc1cc(C)n(CCc2nc(-c3ccco3)cs2)n1,"inconclusive: 35.5 µM [inhibitor, single point]",
COc1ccc(NC(=O)c2cc(Br)ccc2Cl)c(OC)c1,,inactive: -18.1%
CCn1cc(C(=O)N2CCN(c3cccc(Cl)c3)CC2)c(=O)c2cc(S(=O)(=O)N3CCOCC3)ccc21,,inactive: -33%
CCCCCCCCCCCCN1[C@@H](CC(=O)OC)c2cc(F)ccc2S1(=O)=O,"inconclusive: 35.5 µM [inhibitor, single point]",
Cc1ccc(Cc2nc3ccccc3nc2SCC(=O)N2CCc3ccccc32)cc1,"inconclusive: 0.708 µM [inhibitor, partial curve, poor fit]",

Structure (SMILES),Potency,"activity, negative = inhibition"
Cc1csc(SCC(=O)Nc2cccc(C)c2C)n1,,inactive: 3.43%
CN(C[C@H](c1ccccc1)N(C[C@H](Cc1ccccc1)N(CCc1ccccc1)N=O)N=O)N=O,,inactive: -10.6%
O=C(NCCO)c1cccc(Nc2nc(-c3ccccc3)c3cc(Cl)ccc3n2)c1,"inconclusive: 35.5 µM [inhibitor, single point]",
CC1(C)C(=O)Nc2ccccc2N1C(=O)COC(=O)c1ccc([N+](=O)[O-])o1,"inconclusive: 20 µM [inhibitor, partial curve, poor fit]",
CCn1ccnc1CN1CCCC(C(=O)c2ccc3cc(OC)ccc3c2)C1 (centres undefined),"inconclusive: 12.6 µM [inhibitor, partial curve]",
O=c1oc2ccc(Br)cc2cc1-c1nc2c(s1)CCc1ccccc1-2,,inactive: 24.5%
C=CCn1c(SCC(=O)NCc2ccco2)nnc1-c1ccc2ccccc2n1,"inconclusive: 0.447 µM [inhibitor, full curve, poor fit]",
O=[N+]([O-])c1ccc(N/N=C2\CC3CC=CC23)cc1 (centres undefined),"inconclusive: 14.1 µM [inhibitor, partial curve, poor fit]",
Cc1[nH]c2ccc(-c3nnc(SCC(=O)NCc4ccco4)n3Cc3ccccc3)cc2c1C,"inconclusive: 35.5 µM [inhibitor, single point]",
Cc1cccc(N2CCN(C(=O)c3c(-c4ccccc4)noc3C)CC2)c1C,"inconclusive: 11.2 µM [inhibitor, partial curve, poor fit]",
COc1cc(/C(C#N)=C/c2ccccc2)c([N+](=O)[O-])cc1OC,,inactive: -5.5%
CCCCCCn1c(CN2CCN(C)CC2)nc2c1c(=O)n(C)c(=O)n2C,"inconclusive: 35.5 µM [inhibitor, single point]",
CCOc1ccc(CCNC(=O)CCc2c(C)nc3c(c(C)nn3-c3ccccc3)c2C)cc1OCC,"inconclusive: 4.47 µM [inhibitor, full curve]",
CNc1nc(C)c([N+](=O)[O-])c(Nc2ccc(OC)cc2)n1,,inactive: 32.7%
Cc1ccccc1C(=O)N1CCC(c2nc3ccccc3s2)CC1,"inconclusive: 28.2 µM [inhibitor, single point]",
O=C1N/C(=N/O)S/C1=C/c1cccnc1,"inconclusive: 22.4 µM [inhibitor, single point]",
CSC(=NC1CCCCC1)NS(=O)(=O)c1ccccc1,"inconclusive: 35.5 µM [inhibitor, single point]",
CN(C1CCCCC1)S(=O)(=O)c1ccc(S(=O)(=O)N(CC(=O)Nc2ccccc2)C2CC2)cc1,"inconclusive: 35.5 µM [inhibitor, single point]",
O=C(NC(c1ccc(F)cc1)c1ccc2ccccc2n1)C1CCN(CCOc2ccc(Cl)cc2Cl)CC1 (centres undefined),"inconclusive: 22.4 µM [inhibitor, single point]",
O=C(/C=C/Nc1ccc(F)cc1Br)c1ccccc1,,inactive: -2.75%
COc1ccc(CN(C)C[C@@H]2OCc3cnnn3CCCC(=O)N([C@H](C)CO)C[C@H]2C)cc1,"inconclusive: 5.62 µM [inhibitor, single point]",
O=C1c2[nH]nc(-c3ccccc3O)c2C(c2ccccc2F)N1Cc1ccco1 (centres undefined),"inconclusive: 35.5 µM [inhibitor, single point]",

Structure (SMILES),Potency,"activity, negative = inhibition"
O=C(Nc1ccc(Cl)cc1)/C(=C1\CCCN1)[N+](=O)[O-],"inconclusive: 35.5 µM [inhibitor, single point]",
CN(C)c1ccc(N=Nc2ccccc2C(=O)OCC(=O)NCC2CCCCC2)cc1,"inconclusive: 35.5 µM [inhibitor, single point]",
COc1cccc(/C=N/NC(=O)c2cc3c(OC)ccc(OC)c3[nH]2)c1O,"inconclusive: 0.447 µM [inhibitor, full curve, poor fit]",
Cc1ccccc1NC(=O)CC1SC(=NC2CCCCC2)NC1=O (centres undefined),"inconclusive: 35.5 µM [inhibitor, single point]",
CC(=O)c1c(C)[nH]c(C(=O)OCC(=O)NCCc2ccc(Cl)cc2)c1C,"inconclusive: 35.5 µM [inhibitor, single point]",
CCOc1ccc(CCNC(=O)CCc2nnc3ccc(N4CCCCC4)nn23)cc1OCC,,inactive: -15.2%
COc1ccccc1-c1cc2nc(-c3ccccc3)cc(N3CCN(C(=O)c4ccoc4)CC3)n2n1,"inconclusive: 6.31 µM [inhibitor, partial curve, poor fit]",
Cc1cc(Sc2nnc(N)s2)c2ccccc2n1,active: 7.08 µM,
CC(C)(CO)CNC(=O)c1ccc2nc(Cc3cccc(Cl)c3)oc2c1,,inactive: -3.28%
c1ccc(CN2CCN(c3ncnc4c3[nH]c3ccccc34)CC2)cc1,"inconclusive: 35.5 µM [inhibitor, single point]",
O=C(CCc1c[nH]c2ccccc12)N/N=C/c1ccc2c(c1)OCO2,,inactive: -9.31%
COc1cccc(OCCOCC(O)CN2CCN(Cc3ccc(Cl)cc3)CC2)c1 (centres undefined),"inconclusive: 11.2 µM [inhibitor, partial curve]",
COC(=O)c1ccc(NC(=O)CSc2nc(=O)n(Cc3ccco3)c3c2CCC3)cc1,"inconclusive: 20 µM [inhibitor, partial curve]",
COc1cc(S(=O)(=O)N2CCCC3(CCCCC3)C2)ccc1-n1cnnn1,,inactive: -15.8%
O=[N+]([O-])c1ccc2c3n([n+]([O-])c2c1)CCN=C3c1ccc(Cl)cc1,"inconclusive: 35.5 µM [inhibitor, partial curve, poor fit]",
Cc1noc(/C=C/N(C)C)c1S(=O)(=O)N1CCCC(C(=O)NCc2ccc(Cl)cc2)C1 (centres undefined),"inconclusive: 11.2 µM [inhibitor, partial curve, poor fit]",
Cc1ccc2ccccc2c1CSc1nc(N)nc2c1ncn2CC(C)C,"inconclusive: 35.5 µM [inhibitor, single point]",
COc1cccc(-c2cc3c(c4c2ccn4C)C2CCC3C2)c1 (centres undefined),,inactive: -13.9%
Cc1ccc(-c2nc(SCC(=O)NCC3CCCO3)c(-c3ccc(Cl)cc3)[nH]2)cc1 (centres undefined),"inconclusive: 25.1 µM [inhibitor, single point]",
COc1ccc(-n2c(CN3CCN(c4ccccn4)CC3)nc3ccc([N+](=O)[O-])cc3c2=O)c(OC)c1,,inactive: -14.9%
